# Laboratory results taken from ChEMBL document CHEMBL1201862, “PubChem BioAssay data set” (2004).
# Tested on: NCI-H322M
# Assay: DTP human tumour cell line panel, 48 h
row,SMILES,GI50
1,CC(=O)C1=C(C)Cn2c(=O)c3ccccc3c(=O)n2C1,inactive: > 100 µM
2,CCc1nnc2sc(-c3ccc(-c4ccccc4[N+](=O)[O-])o3)nn12,inactive: 95.7 µM
3,O=C(c1ccccc1)c1nnn(Cc2cccc(Cl)c2)c1C(=O)c1ccccc1,inactive: > 100 µM
4,O=C1c2cc3c(cc2[C@@H]2C(O)[C@H]4O[C@H]4C4CCN1C42)OCO3 (stereo partly specified),inactive: > 37.5 µM
5,COc1ccc(-c2cc(-c3ccc(Nc4ccnc5cc(Cl)ccc45)cc3)[nH]c(=O)c2C#N)c2ccccc12,inactive: 13.7 µM
6,CCCCCCC1OC23OC1CCC2C(O)CCC3O (stereo unspecified),inactive: > 100 µM
7,COC(=O)C1=CC2OC13CC1CCC3(C2=O)C1(C)C (stereo unspecified),inactive: 15.8 µM
8,CC1(C)COC(c2c(-c3ccccc3)noc2C[S+]([O-])c2ccccc2)=N1 (stereo unspecified),inactive: 42.7 µM
9,COc1ccccc1/C=C1\CCC(CN(C)C)C1=O (stereo unspecified),inactive: 17.5 µM
10,N#Cc1cc2c(cc1Cl)Sc1nccn1S2(=O)=O,inactive: 3.17 µM
11,C[C@@H](C[C@@H](O)[C@H](O)C(C)(C)O)[C@H]1CC=C2[C@]3(C)[C@H](O)C[C@H]4C(C)(C)[C@H](O)CC[C@]4(C)[C@H]3CC[C@@]21C,inactive: 14.8 µM
12,COc1cc(O)c2c(=O)c(OC)c(-c3ccc(OC)c(OC)c3)oc2c1 [RETUSIN],inactive: 41 µM
13,C=C1C(=O)O[C@H]2C1C[C@@H](O)/C(C)=C/CC[C@@]1(C)O[C@H]21 (stereo partly specified),inactive: > 56.8 µM
14,CC1CC(C)(C)CC(OCCN2CCCCC2)(c2ccccc2)C1 (stereo unspecified),inactive: 10.5 µM
15,CC(SC(=S)N1CCCC1)C(=O)Nc1nnc(-c2ccc(Cl)cc2)o1 (stereo unspecified),inactive: 34.3 µM
16,CCCC[C@@H]1CCN2C[C@@H](O)[C@@H](O)[C@H]2[C@@H]1O,inactive: > 100 µM
17,CC[P+]1(CC)CCCC1,inactive: > 100 µM
18,OCC1OC(NC(=S)NCSCCC(F)(F)C(F)(F)C(F)(F)C(F)(F)C(F)(F)C(F)(F)F)C(O)C(O)C1O (stereo unspecified),inactive: > 100 µM

row,SMILES,GI50
1,Cc1ccc2c(c1)-c1nc(N)c(C#N)c(-c3ccc(Cl)cc3)c1CCS2(=O)=O,inactive: 27.6 µM
2,CC1CCSC(N(C(=O)N(C)c2ccccc2)c2ccccc2)=N1 (stereo unspecified),inactive: > 100 µM
3,Cc1ccc(N(C(=O)CC(=O)N2N=C(c3ccccc3)C(/N=N/c3ccc([N+](=O)[O-])cc3)C2=O)C(=O)c2ccc(Cl)cc2)cc1 (stereo unspecified),inactive: 8.3 µM
4,COc1nc(C#CCC(C)O)nc(OC)n1 (stereo unspecified),inactive: 17.6 µM
5,CC1(C)CS(=O)(=O)CC(C)(C)C(=N/N)/C1=N\N,inactive: > 100 µM
6,CC(=O)CC(=O)NC=O,inactive: > 100 µM
7,CN(CCN(C)C(=O)CCn1ccc(=O)[nH]c1=O)C(=O)CCn1ccc(=O)[nH]c1=O,inactive: > 100 µM
8,Nc1n[c-](N)[n+](=O)c(N)c1NCO,inactive: > 100 µM
9,O=C(/C=C/C=C/c1ccccc1)CCc1ccccc1,inactive: > 100 µM
10,CN(CCO)c1nc(N)cc(=O)[nH]1,inactive: > 100 µM
11,COP(C)(=O)C(Cc1c[nH]c2ccccc12)NC(=O)OCc1ccccc1 (stereo unspecified),inactive: > 100 µM
12,CCCCCCN(CCCCCC)C(=S)N/N=C(\C)c1ccccn1,active: 0.836 µM
13,CC(=O)OC1(Sc2ccccc2)CC2[C@H]3COC(C)(C)O[C@H]3CC[C@@]2(C)CC1=O (stereo partly specified),inactive: 63.7 µM
14,O=C(/N=C(/Nc1ccccc1)SCCS/C(=N\C(=O)c1ccccc1)Nc1ccccc1)c1ccccc1,inactive: > 100 µM
15,CCC(C=O)P1(=O)OC(C)(C)CN1C(C)(C)C (stereo unspecified),inactive: > 100 µM
16,O=C(CSc1c2ccccc2nc2ccccc12)Nc1ccccc1-c1ccccc1NC(=O)CSc1c2ccccc2nc2ccccc12,inactive: 32.7 µM
17,CC(C)CCC1CC2C(=O)N(c3ccccc3)C(=O)C2c2[nH]c3ccccc3c21 (stereo unspecified),active: 0.518 µM
18,O=C(O)CN1CCN2CCCCCCCCN(CC1)CCN(CC(=O)O)CC2,inactive: > 100 µM

#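 A five-concentration, 48-hour dose response in 96-well plates underlies each endpoint, interpolated linearly between surrounding concentrations. Here, GI50 denotes the concentration required for 50% inhibition of growth.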 Active and inactive are the calls of the source. Rule as the data show it: active = GI50 up to about 1.1 µM and inactive = higher.
